According to the supplement of paper PMC3334620:
The full ranking holds about 33,000 sequences; the median of “E-score (-0.5 to 0.5)” is about -0.035, and the highest 2% start at about 0.35. This is one part of the list.

Target: T1, Pdr3 (UniProt P33200)
T1 sequence: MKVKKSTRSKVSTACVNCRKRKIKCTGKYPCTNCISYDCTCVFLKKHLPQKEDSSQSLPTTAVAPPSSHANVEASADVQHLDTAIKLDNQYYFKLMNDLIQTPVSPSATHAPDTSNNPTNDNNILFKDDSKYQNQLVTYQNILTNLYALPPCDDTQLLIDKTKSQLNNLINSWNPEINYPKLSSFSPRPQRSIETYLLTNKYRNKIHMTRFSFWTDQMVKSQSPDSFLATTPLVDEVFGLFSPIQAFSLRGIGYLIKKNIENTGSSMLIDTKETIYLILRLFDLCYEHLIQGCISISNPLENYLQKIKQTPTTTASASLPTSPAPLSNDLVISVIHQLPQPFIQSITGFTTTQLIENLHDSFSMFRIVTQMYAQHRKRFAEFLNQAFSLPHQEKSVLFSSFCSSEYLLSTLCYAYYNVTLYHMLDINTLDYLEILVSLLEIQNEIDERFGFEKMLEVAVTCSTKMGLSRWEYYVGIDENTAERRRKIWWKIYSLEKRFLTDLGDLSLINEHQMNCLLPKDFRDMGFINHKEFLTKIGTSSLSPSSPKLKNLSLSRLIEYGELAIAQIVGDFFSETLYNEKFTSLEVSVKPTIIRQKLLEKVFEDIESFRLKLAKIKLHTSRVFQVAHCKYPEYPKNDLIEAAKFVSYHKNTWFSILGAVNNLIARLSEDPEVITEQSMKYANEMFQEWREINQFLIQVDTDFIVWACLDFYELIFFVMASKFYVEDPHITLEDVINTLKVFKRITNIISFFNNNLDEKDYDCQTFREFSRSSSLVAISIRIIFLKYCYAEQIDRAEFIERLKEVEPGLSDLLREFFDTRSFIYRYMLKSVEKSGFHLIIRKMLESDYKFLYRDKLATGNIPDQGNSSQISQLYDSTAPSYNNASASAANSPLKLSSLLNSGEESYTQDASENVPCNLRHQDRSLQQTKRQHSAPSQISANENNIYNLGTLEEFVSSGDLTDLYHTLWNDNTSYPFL
Experiment: PBM E-score (8-mer binding enrichment) (E-score (-0.5 to 0.5)); higher = stronger / more preferred TF binding; most listed sequences are background and not binding sites
Conditions: protein concentration: 200 nM; construct: GST-full length
Summary of the method: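 Universal all-10-mer Agilent arrays, fresh or stripped once, were converted to double-stranded form by primer extension. GST-tagged yeast transcription factors from PURExpress in vitro transcription/translation, full-length or DNA-binding domain only, were applied at about 100-200 nM and detected with fluorescent anti-GST. After masliner normalisation, the Universal PBM Analysis Suite scored each ungapped eight-base word together with its reverse complement by E-score.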

Sequence | PBM E-score
AAGACACG | 0.0223
AGTCCGTC | 0.259
AGATTCCA | 0.0602
ATGTTCAA | 0.106
CGTGGTTA | -0.275
CCGCCTTA | -0.0967
ACAATGCA | 0.0617
CAGGTTGG | -0.0735
CCGCACGG | 0.279
CGAAAGCC | -0.105
TATATGAA | 0.00892
GAGGTATA | -0.0622
ACGATGCA | 0.0111
ATAGTAGA | -0.0178
ACTGTTGA | -0.141
AGTATCTG | -0.157
CATCCAAG | 0.00399
GCTAGTTA | -0.0442
CCTTCAAG | -0.0814
AGCACGAT | -0.0278
AAGGGTAG | -0.15
AGCGCGGA | 0.331
CTTTGCCC | -0.17
ACGCACTA | -0.0824
ATGTATGG | -0.269

Sequence | PBM E-score
CCCCTGAA | 0.0189
AGACCCCC | -0.271
ATCTATTA | 0.147
ATTCTATG | -0.0254
AGGATATG | -0.0369
ATACCGAA | 0.101
TGAACAAA | 0.146
CAGTCTGG | -0.27
ATACGGGC | 0.00646
GCAGAATA | -0.0373
CAACTCAC | -0.0155
ACGAGCCC | -0.0654
AAACGTAT | 0.0149
ACTGGCAA | -0.123
ACCGTAAA | -0.0635
GCGCAAAA | 0.0314
AAATGTGG | 0.0508
AGGCGGCC | 0.0632
AGGTCGAC | 0.0695
ACTTGCAC | -0.0441
AGACCACC | -0.229
AAGTTCAT | 0.115
CACGTTGC | -0.175
AGGGAGTA | -0.205
GGACCCCC | -0.0544

Sequence | PBM E-score
GAGCGCGC | 0.283
ACACTCCT | -0.0522
AATGATAA | 0.106
AATTCCAC | 0.193
TATACGAA | 0.0271
GGCCAACC | 0.0991
GGCCAGAC | 0.075
GGATTAAA | 0.119
GCGGTTGA | 0.169
ATTTAGTA | 0.173
TCTGGCCA | -0.0481
ATGGGGCG | 0.0867
ATCGACGC | 0.0707
GCGATACC | -0.00065
AGAACTGA | -0.0933
CCTTAGCA | -0.0732
CGAGCTCG | 0.224
GGCGTAGA | -0.0518
CTAACACC | -0.189
AATTCGCA | 0.255
GGGCTCAA | -0.118
CAGAGGTA | 0.00282
GGATCCAC | 0.203
GATGCCGC | 0.0903
GACACTAC | -0.00203

Sequence | PBM E-score
CTAGAATA | -0.0684
ATACTCGC | 0.162
GATCACGA | -0.11
CGCGTAGC | -0.044
CCCTACGG | -0.00133
CAGACATA | 0.0453
CCTTCAGC | -0.301
GTCTTCAA | -0.189
ACTAGCGA | 0.00219
AAACGGCA | 0.079
ATACATCA | -0.00985
TACTCCAA | -0.105
CTTCAGTC | -0.179
TCTTCGCA | 0.0511
AACGAAGG | -0.259
ACGTCAAC | -0.0164
GATCGACA | -0.157
CCATTTGA | -0.112
CGTGCTAA | -0.171
AATCTTGT | 0.126
GTCGCAGA | 0.036
ACCCTCCC | 0.299
AGTCTAGA | -0.29
TCCAAGGA | -0.00825
GATCAGGC | -0.00771

Sequence | PBM E-score
ATTGAGTG | 0.0622
AAGATGGA | -0.00023
AGCGTTGG | -0.244
GCTGCCCA | -0.0281
GCTAATCA | -0.062
TATTGCCA | -0.0334
GCGCTGGA | 0.141
ATTCGCTC | 0.0456
CGAAGTCA | -0.15
GAGCACTA | -0.126
ATCGCAAA | 0.0175
TACAATCA | -0.193
AAATGTAG | -0.12
ATTCGTAC | 0.0686
AAGAGATA | -0.206
ACAGCTCC | 0.0544
GATGTTCC | 0.336
CATCTCGG | 0.257
ATATGACG | 0.0426
ACCACAGA | -0.126
AAATCGTC | -0.0133
AGAGCCAG | -0.271
CACCATTA | 0.103
ACTGCTTA | -0.252
AGCCGCAT | 0.0366

Sequence | PBM E-score
CTCTAGAC | -0.245
ACATACTA | 0.0877
ATGAAAAG | -0.123
AACCACCA | -0.0596
AACGCTTC | 0.0186
CTAAAGAA | -0.203
ACCGCGGG | 0.472
AAAGTAGG | -0.0329
AGAGGCTG | -0.365
GTTGACTA | -0.205
ACATGTAA | -0.0728
GCCTTGGA | -0.0995
AACTCTCT | -0.0885
ACTGCCCG | 0.179
CTCAAACA | -0.0298
TAGGCCCA | -0.256
ATATCTGC | -0.044
ACGATAAA | -0.307
ACGTCCCT | -0.213
ATTGCACC | -0.0754
CCTTGATA | -0.156
ATATTAAT | 0.285
ATCTAGCA | -0.152
GGCGCTTA | -0.0877
ACGACAAC | 0.19

Sequence | PBM E-score
ATGTGAAC | -0.153
AGCGCTTA | 0.0658
TAAATTAA | 0.0873
AGCAGTAC | -0.139
ACCACGTC | -0.174
CTCTCGTA | -0.00771
GCACCCCC | -0.0953
ACCGTGAT | 0.0525
ACCGGGTG | 0.318
ACCTGACG | -0.179
GGGGAACC | -0.157
TGGTCACA | -0.118
CTGACCAA | -0.0236
AGCAACCT | -0.0661
AACAGGTG | -0.152
CCAAATCG | -0.113
CCTCAGAC | 0.0121
GGGGTACA | -0.134
ACAATACC | 0.0775
ACCACATC | 0.0699
ATGTTGAG | -0.0775
AACTTTGG | -0.108
